The list shows a part of the results. Many values rest on one well or one pass, so single values are uncertain.
Columns and labels:
Assay in all cases: cell count relative to DMSO control; melanoma cells; higher = more viable cells
Conditions in all cases: library dose: low library concentration; 72 h
[1] = test system: WM115
[2] = test system: WM1716
[3] = test system: WM1745
[4] = test system: WM3526
[5] = test system: WM3619
[6] = test system: WM451Lu
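Further: cell number obtained by counting DAPI-stained nuclei in high-throughput microscope images with image analysis software, screen run in 1,536-well plates.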

Row | Compound | cell count [1] [%] | cell count [2] [%] | cell count [3] [%] | cell count [4] [%] | cell count [5] [%] | cell count [6] [%]
1 | CCN(CC)CCNC(=O)c1c(C)[nH]c(/C=C2\C(=O)Nc3ccc(F)cc32)c1C [sunitinib] + CS(=O)(=O)CCNCc1ccc(-c2ccc3ncnc(Nc4ccc(OCc5cccc(F)c5)c(Cl)c4)c3c2)o1 [lapatinib] (first compound 0.4 µM, partner dose 0.8 µM) | 100 | 126 | 93.1 | 84.5 | 136 | 97.9
2 | CCN(CC)CCNC(=O)c1c(C)[nH]c(/C=C2\C(=O)Nc3ccc(F)cc32)c1C [sunitinib] + O=C(O)c1ccc(-c2c[nH]c3ncc(-c4ccccc4)cc23)cc1C1CCCC1 [GSK650394] (first compound 0.4 µM, partner dose 0.16 µM) | 105 | 144 | 65 | 77.9 | 94.9 | 122
3 | Cn1cnc2c(F)c(Nc3ccc(Br)cc3Cl)c(C(=O)NOCCO)cc21 [selumetinib] + CCCS(=O)(=O)Nc1ccc(F)c(C(=O)c2c[nH]c3ncc(Cl)cc23)c1F [PLX4720] (first compound 0.015 µM, partner dose 0.08 µM) | 96.4 | 82 | 95.6 | 60.4 | 97.2 | 142
4 | COc1cc([C@@H]2c3cc4c(cc3[C@@H](O[C@@H]3O[C@@H]5CO[C@@H](C)O[C@H]5[C@H](O)[C@H]3O)[C@H]3COC(=O)[C@H]23)OCO4)cc(OC)c1O [etoposide] + C[C@]1(c2nc3c(C(N)=O)cccc3[nH]2)CCCN1 [Veliparib] (first compound 0.02 µM, partner dose 1.4 µM) | 90.6 | 87.1 | 88.7 | 113 | 90.8 | 94

From the supplement of paper PMC4604168 (melanoma cell lines)
